In the supplement of paper PMC10369915 one finds enrichment score data, which are given here for 19 molecules.

Some of the results follow. Cut-off read from the data, not from the text of the source: active = 3.2 or more and inactive = the rest. Only a few entries rise above the background.
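Note: displayed peptides selected on beads carrying the immobilized SH2 domain, with library peptides lacking any tyrosine serving as negative controls.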

The target of one test is SHP2 C-SH2 domain E139D. The test is described as follows: enrichment score (SH2-bound / input frequency) (ratio); bacterial display of known human phosphotyrosine sites (pTyr-Var adds point mutants) read by sequencing; higher = stronger binding; tyrosines were phosphorylated by kinases first. Particulars: peptide library: pTyr-Var.
On to IVAEFYDNLPH [DEGS1_Y284_A280V_YF], for which the enrichment score was inactive: 0.905.

As for QDDTVYMGKVT [DCTN1_Y1244], the enrichment score was inactive: 0.594.

As to YSGDCYRIQGR [DDR2_Y741_Y740C], the enrichment score was inactive: 0.56.

With PQAVRYIYTID [DCX_Y103_G100A], the enrichment score was inactive: 1.9.

Regarding LPIQTYSALNF [DES_Y423], the enrichment score was inactive: 1.18.

Regarding LSIQTYSALNF [DES_Y423_P419S], the enrichment score is inactive: 2.26.

As to FKGIVYSVSSD [DCX_Y70_A71S], the enrichment score is inactive: 0.672.

As to GVRYIYTIDGS [DCX_Y105], the enrichment score was inactive: 2.31.

Consider CTLLPYFSAPV [DGKE_Y269_R273P_YF], for which the enrichment score was inactive: 1.04.

As for HICTAYKLVLA [DHCR24_Y190_E191K], the enrichment score is inactive: 1.55.

Regarding QGRQTYLLQPA [DDR2_Y813_P815L], the enrichment score was inactive: 0.805.

Consider RNGNRYFKGIV [DCX_Y64_D62N], for which the enrichment score was inactive: 0.432.

Turning to GVSFIYTIDGS [DCX_Y105_R102S_YF], the enrichment score was inactive: 0.864.

For the molecule TQNGVYSAANY [DDX5_Y535], the enrichment score was inactive: 0.701.

CTLLPYYSARV [DGKE_Y269]: the enrichment score was inactive: 0.834.

Turning to AVRYIYTIDGS [DCX_Y105_G100A], the enrichment score was inactive: 2.18.

As for KRTFEYEADKN [DENND2B_Y396], the enrichment score is inactive: 0.56.

KHASTYREAAT [DEAF1_Y483]: the enrichment score is inactive: 0.806.

Regarding EEGESHVCSSD [DCX_Y125_Y125H], the enrichment score is inactive: 0.577.

A further test deals with SHP2 C-SH2 domain wild-type. The description is as above. Particulars: peptide library: pTyr-Var.
Turning to IVAEFYDNLPH [DEGS1_Y284_A280V_YF], the enrichment score is inactive: 0.653.

For the molecule QDDTVYMGKVT [DCTN1_Y1244], the enrichment score is inactive: 1.08.

Regarding YSGDCYRIQGR [DDR2_Y741_Y740C], the enrichment score is inactive: 0.691.

Consider PQAVRYIYTID [DCX_Y103_G100A], for which the enrichment score was active: 4.71.

For the molecule LPIQTYSALNF [DES_Y423], the enrichment score is inactive: 1.16.

For LSIQTYSALNF [DES_Y423_P419S], the enrichment score is inactive: 2.9.

On to FKGIVYSVSSD [DCX_Y70_A71S], for which the enrichment score was inactive: 0.873.

As for GVRYIYTIDGS [DCX_Y105], the enrichment score was active: 4.5.

With CTLLPYFSAPV [DGKE_Y269_R273P_YF], the enrichment score was inactive: 1.55.

For HICTAYKLVLA [DHCR24_Y190_E191K], the enrichment score is inactive: 1.8.

As for QGRQTYLLQPA [DDR2_Y813_P815L], the enrichment score was inactive: 0.899.

For RNGNRYFKGIV [DCX_Y64_D62N], the enrichment score was inactive: 0.399.

In the case of GVSFIYTIDGS [DCX_Y105_R102S_YF], the enrichment score is inactive: 0.805.

With TQNGVYSAANY [DDX5_Y535], the enrichment score was inactive: 0.68.

Consider CTLLPYYSARV [DGKE_Y269], for which the enrichment score was inactive: 1.07.

On to AVRYIYTIDGS [DCX_Y105_G100A], for which the enrichment score is active: 4.4.

As to KRTFEYEADKN [DENND2B_Y396], the enrichment score is inactive: 0.598.

In the case of KHASTYREAAT [DEAF1_Y483], the enrichment score was inactive: 0.696.

For the molecule EEGESHVCSSD [DCX_Y125_Y125H], the enrichment score is inactive: 0.445.

For another test, the target named is SHP2 N-SH2 domain L43F. Described as above. Conditions: peptide library: pTyr-Var.
IVAEFYDNLPH [DEGS1_Y284_A280V_YF]: the enrichment score was inactive: 0.823.

In the case of QDDTVYMGKVT [DCTN1_Y1244], the enrichment score is inactive: 0.876.

As to YSGDCYRIQGR [DDR2_Y741_Y740C], the enrichment score is inactive: 0.643.

Take PQAVRYIYTID [DCX_Y103_G100A]: the enrichment score was inactive: 1.48.

Turning to LPIQTYSALNF [DES_Y423], the enrichment score was inactive: 3.13.

Turning to LSIQTYSALNF [DES_Y423_P419S], the enrichment score was active: 5.91.

Take FKGIVYSVSSD [DCX_Y70_A71S]: the enrichment score is inactive: 0.922.

With GVRYIYTIDGS [DCX_Y105], the enrichment score was inactive: 1.18.

Turning to CTLLPYFSAPV [DGKE_Y269_R273P_YF], the enrichment score was inactive: 1.19.

For the molecule HICTAYKLVLA [DHCR24_Y190_E191K], the enrichment score is inactive: 2.24.

In the case of QGRQTYLLQPA [DDR2_Y813_P815L], the enrichment score is inactive: 0.958.

As for RNGNRYFKGIV [DCX_Y64_D62N], the enrichment score is inactive: 0.431.

In the case of GVSFIYTIDGS [DCX_Y105_R102S_YF], the enrichment score was inactive: 1.16.

Take TQNGVYSAANY [DDX5_Y535]: the enrichment score was inactive: 0.604.

Take CTLLPYYSARV [DGKE_Y269]: the enrichment score was inactive: 0.921.

Turning to AVRYIYTIDGS [DCX_Y105_G100A], the enrichment score is inactive: 1.22.

For the molecule KRTFEYEADKN [DENND2B_Y396], the enrichment score is inactive: 0.533.

For the molecule KHASTYREAAT [DEAF1_Y483], the enrichment score is inactive: 0.707.

Consider EEGESHVCSSD [DCX_Y125_Y125H], for which the enrichment score is inactive: 0.503.

The next test concerns the target SHP2 N-SH2 domain T42A. The description is as above. Particulars: peptide library: pTyr-Var.
IVAEFYDNLPH [DEGS1_Y284_A280V_YF]: the enrichment score was inactive: 0.806.

With QDDTVYMGKVT [DCTN1_Y1244], the enrichment score is inactive: 0.65.

As to YSGDCYRIQGR [DDR2_Y741_Y740C], the enrichment score was inactive: 0.697.

Consider PQAVRYIYTID [DCX_Y103_G100A], for which the enrichment score was inactive: 2.77.

Take LPIQTYSALNF [DES_Y423]: the enrichment score is active: 4.41.

As to LSIQTYSALNF [DES_Y423_P419S], the enrichment score is active: 6.55.

As for FKGIVYSVSSD [DCX_Y70_A71S], the enrichment score was inactive: 0.752.

As to GVRYIYTIDGS [DCX_Y105], the enrichment score is active: 3.25.

As for CTLLPYFSAPV [DGKE_Y269_R273P_YF], the enrichment score was inactive: 1.1.

For HICTAYKLVLA [DHCR24_Y190_E191K], the enrichment score was inactive: 1.77.

Consider QGRQTYLLQPA [DDR2_Y813_P815L], for which the enrichment score is inactive: 0.652.

As for RNGNRYFKGIV [DCX_Y64_D62N], the enrichment score is inactive: 0.329.

For the molecule GVSFIYTIDGS [DCX_Y105_R102S_YF], the enrichment score was inactive: 0.819.

With TQNGVYSAANY [DDX5_Y535], the enrichment score was inactive: 0.53.

As for CTLLPYYSARV [DGKE_Y269], the enrichment score is inactive: 0.807.

Turning to AVRYIYTIDGS [DCX_Y105_G100A], the enrichment score was inactive: 2.94.

Take KRTFEYEADKN [DENND2B_Y396]: the enrichment score is inactive: 0.573.

Consider KHASTYREAAT [DEAF1_Y483], for which the enrichment score is inactive: 0.615.

For the molecule EEGESHVCSSD [DCX_Y125_Y125H], the enrichment score was inactive: 0.569.

Another test concerns the target SHP2 N-SH2 domain T52S. The description is as above. Particulars: peptide library: pTyr-Var.
As for IVAEFYDNLPH [DEGS1_Y284_A280V_YF], the enrichment score is inactive: 0.911.

Take QDDTVYMGKVT [DCTN1_Y1244]: the enrichment score was inactive: 0.794.

In the case of YSGDCYRIQGR [DDR2_Y741_Y740C], the enrichment score was inactive: 0.75.

Consider PQAVRYIYTID [DCX_Y103_G100A], for which the enrichment score was inactive: 1.38.

Consider LPIQTYSALNF [DES_Y423], for which the enrichment score was active: 3.59.

Regarding LSIQTYSALNF [DES_Y423_P419S], the enrichment score was active: 5.75.

FKGIVYSVSSD [DCX_Y70_A71S]: the enrichment score was inactive: 0.789.

On to GVRYIYTIDGS [DCX_Y105], for which the enrichment score is inactive: 1.19.

In the case of CTLLPYFSAPV [DGKE_Y269_R273P_YF], the enrichment score was inactive: 1.04.

Take HICTAYKLVLA [DHCR24_Y190_E191K]: the enrichment score is inactive: 1.92.

For the molecule QGRQTYLLQPA [DDR2_Y813_P815L], the enrichment score is inactive: 0.793.

With RNGNRYFKGIV [DCX_Y64_D62N], the enrichment score is inactive: 0.333.

As to GVSFIYTIDGS [DCX_Y105_R102S_YF], the enrichment score was inactive: 0.919.

On to TQNGVYSAANY [DDX5_Y535], for which the enrichment score is inactive: 0.712.

For CTLLPYYSARV [DGKE_Y269], the enrichment score is inactive: 0.709.

Consider AVRYIYTIDGS [DCX_Y105_G100A], for which the enrichment score was inactive: 1.28.

As to KRTFEYEADKN [DENND2B_Y396], the enrichment score was inactive: 0.46.

For KHASTYREAAT [DEAF1_Y483], the enrichment score is inactive: 0.633.

In the case of EEGESHVCSSD [DCX_Y125_Y125H], the enrichment score was inactive: 0.513.

A further test addresses SHP2 N-SH2 domain wild-type. The description is as above. Conditions: peptide library: pTyr-Var.
Turning to IVAEFYDNLPH [DEGS1_Y284_A280V_YF], the enrichment score was inactive: 0.803.

For the molecule QDDTVYMGKVT [DCTN1_Y1244], the enrichment score is inactive: 0.873.

Consider YSGDCYRIQGR [DDR2_Y741_Y740C], for which the enrichment score was inactive: 0.651.

PQAVRYIYTID [DCX_Y103_G100A]: the enrichment score was inactive: 1.2.

Consider LPIQTYSALNF [DES_Y423], for which the enrichment score is inactive: 1.19.

For LSIQTYSALNF [DES_Y423_P419S], the enrichment score was inactive: 2.18.

Consider FKGIVYSVSSD [DCX_Y70_A71S], for which the enrichment score was inactive: 0.908.

Consider GVRYIYTIDGS [DCX_Y105], for which the enrichment score was inactive: 1.08.

Consider CTLLPYFSAPV [DGKE_Y269_R273P_YF], for which the enrichment score is inactive: 1.34.

Regarding HICTAYKLVLA [DHCR24_Y190_E191K], the enrichment score was inactive: 2.36.

Take QGRQTYLLQPA [DDR2_Y813_P815L]: the enrichment score was inactive: 0.778.

For RNGNRYFKGIV [DCX_Y64_D62N], the enrichment score is inactive: 0.315.

GVSFIYTIDGS [DCX_Y105_R102S_YF]: the enrichment score was inactive: 1.16.

With TQNGVYSAANY [DDX5_Y535], the enrichment score is inactive: 0.667.

In the case of CTLLPYYSARV [DGKE_Y269], the enrichment score is inactive: 1.02.

Consider AVRYIYTIDGS [DCX_Y105_G100A], for which the enrichment score was inactive: 1.01.

KRTFEYEADKN [DENND2B_Y396]: the enrichment score is inactive: 0.724.

For KHASTYREAAT [DEAF1_Y483], the enrichment score was inactive: 0.595.

Take EEGESHVCSSD [DCX_Y125_Y125H]: the enrichment score was inactive: 0.582.
